The values that follow come from the RNAGym collection of RNA variant scans (doi:10.1093/nar/gkz1192).

First the molecules themselves.
B1: CPEB3 Ribozyme (parent)
chain: UAACAGGGGGCCACAGCAGAAGCGUUCACGUCGCAGCCCCUGUCAGAUUCUGGUGAAUCUGCGAAUUCUGCUGUAUAUCUC

The source gives no read counts; variants with many changes may rest on few reads.

The variants in this data set derive from B1. The data set can be described thus: self-cleavage, relative activity (ratio to wild type); higher = more cleavage; in vitro, sequencing. The method, boiled down: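 Barcoded CPEB3 ribozyme mutants, produced by rounds of error-prone PCR, self-cleaved while being transcribed with T7 RNA polymerase for 5 hours at 37°C and during a subsequent 15 min DNase I step before EDTA was added. Sequencing of template-switched cDNA on Illumina gave cleaved and total reads, and DNA sequencing assigned barcodes to variants. Each variant's relative activity is its cleaved/total read fraction divided by the unmutated ribozyme's fraction, averaged across three batches. A variant needed a minimum of 5 reads.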
As to UAACAAGGGGCCACAGCGGAAGCGUUCACGUCGCUGCCCCUGUCAGAUUCCGGUGGAUCUGCGAAUUCUGCUGUAUAUCUC [G6A A18G A35U U51C A56G], the self-cleavage was 0.31.

For the variant UAACAAGGGGCCUCAGCAGAAGCGUUCACGUCGCAGCCCCUGUCAGAUUCUGGUGAAUCUGCGAAUUCUGCUGUAAAUCUC [G6A A13U U76A], the self-cleavage came to 0.31.

Turning to UAACUGGGGGCCACAGCAGAAGCGUUCACGUCGCAGCCCCUGUCAGAUUCUGGUGAAACUGCGAAUUCAGCUGUAUAUCUC [A5U U58A U69A], the self-cleavage was 0.22.

For UAACUGGGGGCCACAGCAGAAGCGUUCACGUCGCAGCCCCUGUCAGAUUCUGGUGAAUCCGCGAAUACUGCUGUGUACCUC [A5U U60C U67A A75G U78C], the self-cleavage amounted to 0.14.

As to UAACAAGGGGCCACGGCAGAAGCGUACACGUCGCAGCCCCGGUCAGAUUCUGGUGAAUCUGCGAAUUCUGCUGUAUAUCUC [G6A A15G U26A U41G], the self-cleavage came out at 0.44.

For the variant UAACAAGGGGCCACGGCAGAAGCGUUAACGCCGCAGCCCCUAUCAGAUUCUGGUGAAUCUGCGAAUUCUGCUGUAUAUCUC [G6A A15G C27A U31C G42A], the self-cleavage was found to be 0.04.

On to UAACAAGGGGCCACGGCAGAAGCGUACACGUCGCAGCCCCGGUCAGAUUCUGGCGAAUCUGCGAAUUCUGCUGUAUAUCUC [G6A A15G U26A U41G U54C], for which the self-cleavage is 0.23.

In the case of UAACAAGGGGCCACGGCAGGAGCGUUCACGUCACAGCCCCUGUCAGAUUCUGGUGAAUCCGCGAAUUCUGCCGUAUAUCUC [G6A A15G A20G G33A U60C U72C], the self-cleavage stood at 0.07.

Turning to UAACAAGGGGCCACGGCUGAAGCGUUCACGCCGCAGCCCCUGUCAGAUUCUGGUGAAUCUGCGAAUUCUGCUGUGUAUCUC [G6A A15G A18U U31C A75G], the self-cleavage is 0.04.

As for UAACAAGGGGCCGCAGCAGAAGCGUUCUCGUCGCAGCCCCUGACAGAUUCUGGUGAAUCUGCGAAUUCUGUUGUAUAUCUC [G6A A13G A28U U43A C71U], the self-cleavage came out at 0.08.

Regarding UAACAAGGGGCCACUGCCGGAGCGUUCACGUCGCAGCCCCUGUCAGGUUCUGGUGAAUCUGCGAAUUCUGCUGUAUAUCUC [G6A A15U A18C A20G A47G], the self-cleavage came out at 0.47.

Regarding UAACUGGGGGCCACAGCAGAAGCGUUCACGUCGCAGCCCCUGUCAGAUCCUGGUGAAUCUGCGAAUUCUGCUGUAUAUAUC [A5U U49C C79A], the self-cleavage came to 1.01.

UAACAAGGGGCCUCAGCAGAAGCGUUCACGUCGCAGCCCUUGUCAGAUUCUGGUGAAUCUGCGAAUUCUGCAGUACAUCUC [G6A A13U C40U U72A U76C]: the self-cleavage stood at 0.07.

As to UAACUGGGGGCCACAGCAGAAGCGUUCACGUCGCAGCCCCUGUCAGAUUCAGGUGAAUCUGCGAAUUCCGCUGUAUAUCUC [A5U U51A U69C], the self-cleavage is 0.73.

For UAACUGGGGGCCACAGCAGAAGCGUUCACGUCGCAGCCCCUGUCAGAUUCAGGUGAAUCUGUGAAUUCUGCUGUGUAUCUC [A5U U51A C62U A75G], the self-cleavage turned out to be 0.15.

On to UAACAAGGGGCCACUGCGGAAGCGUUCACGUCGCAGCCCCUGUCAGAUUCUGGCGAGUCUGCGAAUUCUGCUGUAUAUCUC [G6A A15U A18G U54C A57G], for which the self-cleavage was found to be 0.23.

Regarding UAACAAGGGGCCACGGCAGAAGCGCUCCCGUCGCAGCCCCUGUCAGAUUCUGGUGGAUCUGCGAAUUCUGCUGUAUAUCUC [G6A A15G U25C A28C A56G], the self-cleavage is 0.38.

As for UAACAAGGGGCCUCAGCAGAAGCAUUCACGUCGCAGCCCCUGUCUGAUUCUGGCGAAUCUGCGAAUUCUGCUGUAUGUCUC [G6A A13U G24A A45U U54C A77G], the self-cleavage is 0.05.

For the variant UAACAAGGGGCCACGGCAGGAGCGUUCACGUCGCAGCCCCUGGCAGAUUCUGGUGAAUCAGCGAAUUCUGCAGUGUAUCUC [G6A A15G A20G U43G U60A U72A A75G], the self-cleavage is 0.05.

Turning to UAACAAGGGGCCUCAGCGGAAGCGUACACGACUCAGCCCCUGUCAGAUUCUGGUGAAUCUGCGAAUUCUGCUGUUUAUCUC [G6A A13U A18G U26A U31A G33U A75U], the self-cleavage came to 0.03.

Consider UAACAAGGGGCCACAGCGGAAGCGUUCGCGUCGCAGCCCCUGUCAGACUCUUGUGAAUCUGCGAAUUCUGCUGUAUAUCAC [G6A A18G A28G U48C G52U U80A], for which the self-cleavage was determined as 0.07.

As for UAACUGGGGGCCACAGCAGAAGCGUUCACGUCGCAGCCCCUGUCAGAUUCUGGCGAAUCUGCGAAUUCUGCUGCAUAUCAC [A5U U54C U74C U80A], the self-cleavage turned out to be 1.2.

Turning to UAACAAGGGGCCACGGCAGAAGCGCUCCCGUCGCAGCCCCUGUCAGAUACUGGUGGAUCUGCGAAUUCUGCUGUAUAUCUC [G6A A15G U25C A28C U49A A56G], the self-cleavage is 0.05.

UAACAAGGGGCCUCAGCAGAAGCGUUCACGUCGCAGCCCCUGCCAGAUUCCGGUGACUCUGCGAAUUCUGCAGUAUAUCUC [G6A A13U U43C U51C A57C U72A]: the self-cleavage worked out at 0.1.

Take UAACUGGGGGCCACAGCAGAAGCGUUCACGUCGCAGCCCCUGUCAGAUUCUGGUGAAUCUGCGAAUUCCACUGGAUAUCUC [A5U U69C G70A U74G]: the self-cleavage was 0.26.

Take UAACAAGGGGCCACGGCAGAAGCGUUUACGUCGCAGCCCCUGUCAGAUUCUGGUGUAUCUGCGAAUUCUGCUGUAUAUCUC [G6A A15G C27U A56U]: the self-cleavage amounted to 0.03.

Turning to UAACAAGGGGCCACCGCCGAAGCGUUCACGUCGCAGCCCCGGUCAGAUUCUGGUGAAUCUGCGAAUUCUGCUGUAUAUCUC [G6A A15C A18C U41G], the self-cleavage is 0.05.

On to UAACAAGGGGCCACUGCAGAAGCGUUCACGUCGCAGCCCCUGUCAGAUUCUGGGGAAUCUGCGAAUUCUGCUGUAUAUCUC [G6A A15U U54G], for which the self-cleavage came to 0.13.

In the case of UAACAAGGGGCCACGGCAGAAGAGUUCACGGCGCAGCCCCUGCCAGAUUCUGGUGGAUCUGCGAAAUCUGCUGUAUAUCUC [G6A A15G C23A U31G U43C A56G U66A], the self-cleavage came to 0.04.

As to UAACUGGGGGCCACAGCAGAAGCGUUCACGUCGCAGCCCCUGUCAGAUUCUGGUGAAUCCGCGAAUUCUGUUGUAUAUCUC [A5U U60C C71U], the self-cleavage came to 0.23.

Take UAACUGGGGGCCACAGCAGAAGCGUUCACGUCGCAGCCCCUGUCAGAUUCUGGUGAAUCUGCGAAUACUGCUGUAUAUCCC [A5U U67A U80C]: the self-cleavage was found to be 0.74.

With UAACAAGGGGCCACCGCAGAGGCGUUCACGUCGCAGCCCCUGUCAGAUUCUGGUGAAUCUGCGAAUUCAGCUGCAUAUCCC [G6A A15C A21G U69A U74C U80C], the self-cleavage was determined as 0.04.

As to UAACAAGGGGCCACCGCAGAGGCGUACACGUCGCAGCCCCUGUCAGAUUCUGGUGAAUCUGCGAAUUCUGCUGUAUAUCUC [G6A A15C A21G U26A], the self-cleavage turned out to be 0.2.

For the variant UAACUGGGGGCCACAGCAGAAGCGUUCACGUCGCAGCCCCUGUCAGAUUCUGGUGAAUCUGCGAAUUCUGCCGUAUACCUC [A5U U72C U78C], the self-cleavage came out at 1.19.
